Some of the results follow. The main result of the screen is listed elsewhere. These columns were measured beside it and carry no call.
Experiments:
Assay in all cases: Primary Screen for Target Class Profiling of Small Molecule Inhibitors of Methyltransferases
[1] = molecular target: Glycine N-methyltransferase (Homo sapiens) (UniProt Q14749); settings: purified enzyme, MTase-Glo SAH luminescence; measured here: GNMT inhibition; at 40 µM; stronger effect = lower value
Summary of the method: (§1)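 Each enzyme was assayed with SAM and its substrate. SAH formation detected by MTase-Glo luminescence; single-point 40 uM screen[…].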

[2] = molecular target: Guanidinoacetate N-methyltransferase (Homo sapiens) (UniProt Q14353); settings: purified enzyme, MTase-Glo SAH luminescence; measured here: GAMT inhibition; at 40 µM; stronger effect = lower value
Summary of the method: as §1

[3] = molecular target: Histamine N-methyltransferase (Homo sapiens) (UniProt P50135); settings: purified enzyme, MTase-Glo SAH luminescence; measured here: HNMT inhibition; at 40 µM; stronger effect = lower value
Summary of the method: as §1

[4] = molecular target: Nicotinamide N-methyltransferase (Homo sapiens) (UniProt P40261); settings: purified enzyme, MTase-Glo SAH luminescence; measured here: NNMT inhibition; at 40 µM; stronger effect = lower value
Summary of the method: as §1

[5] = molecular target: Phenylethanolamine N-methyltransferase (Homo sapiens) (UniProt P11086); settings: purified enzyme, MTase-Glo SAH luminescence; measured here: PNMT inhibition; at 40 µM; stronger effect = lower value
Summary of the method: as §1
On the % scale 0 is the no-effect control and ±100 the full control effect.

Structure (SMILES)	activity change, negative = inhibition [1]	activity change, negative = inhibition [2]	activity change, negative = inhibition [3]	activity change, negative = inhibition [4]	activity change, negative = inhibition [5]
Cc1cc2c(cc3n2CC(C)(C(=O)NC2CCCCCCC2)N(Cc2cccc(F)c2)C3=O)o1 (stereo not drawn)	-1%	3.24%	3.17%	-0.622%	-0.202%
CCn1cc(S(=O)(=O)N2CC(N(C3CCOCC3)S(C)(=O)=O)C2)cn1	-5.42%	-9.57%	-2.2%	-11.9%	-5.97%
O=C(C[C@@H]1O[C@H](CNC(=O)C2CC2)[C@@H](O)[C@H]1O)Nc1ccccc1	-5.07%	-8.17%	-2.57%	-7.7%	-3.39%
O=S(=O)(c1ccccc1)c1nnn2c1nc(NCc1ccc(F)cc1)c1ccccc12	-6.44%	1.37%	-3.61%	-7.25%	-7.11%
COc1ccc(CCN2C(=O)c3cc4ccccc4n3CC2(C)C(=O)NCc2ccccc2OC)c(OC)c1 (stereo not drawn)	7.12%	0.019%	8.94%	11.2%	3.37%
Fc1ccc(C2Cn3cnc(-c4nc(-c5ccsc5)no4)c3CO2)cc1 (stereo not drawn)	-8.75%	-6.73%	-4.96%	-16.2%	-24.4%
CC(Nc1nc2c(S(=O)(=O)c3ccc(Cl)cc3)nnn2c2ccccc12)c1ccccc1 (stereo not drawn)	-1.55%	0.743%	1.72%	5.76%	-6.04%
CCCN1C(=O)c2c(C(=O)Nc3c(C)cccc3C)ncn2CC1(C)C(=O)NCc1ccc(OC)cc1 (stereo not drawn)	-0.612%	4.17%	7.04%	3.94%	7.89%
O=C(Cn1c(=O)n2nc(-c3cccc(F)c3)nc2c2ccccc21)N1CCN(c2ccccc2F)CC1	2.42%	0%	-3.05%	-0.048%	-1.78%
CC1CCN(c2cc(N3CCN(C)CC3)ccc2NC(=O)c2cc(C#N)c[nH]2)CC1	4.49%	3.26%	8.24%	-10.8%	2.79%
CC(C)(O)CC(CO)NC(=O)CC(O)CC(=O)Cc1ccccc1 (stereo not drawn)	2.4%	-4.01%	7.26%	-12.3%	-4.06%
CC(C)OCCCn1c(=O)c2ccccc2n2c(CCC(=O)NC3CCN(Cc4ccccc4)CC3)nnc12	-9.97%	0.266%	-22.2%	11.6%	3.9%
c1ccc(C(c2ccccc2)N2CCN(Cc3nc(-c4ccccn4)no3)CC2)cc1	-1.31%	-1.53%	0.714%	-21.8%	-2.64%
O=C(O)c1cc(-c2cccc(CO)c2)cc(S(=O)(=O)NC2CCCC2)c1	-1.62%	1.49%	1.56%	-2.09%	1.53%
COc1ccc(NC(=O)N[C@H]2C[C@@H](C(=O)N[C@@H](Cc3cccs3)C(N)=O)N(C(=O)CSC)C2)cc1	-4.46%	-3.6%	-0.27%	-6.78%	-20.1%
CCCN1C(=O)c2cc(C(=O)NCCCOC(C)C)nn2CC1(C)C(=O)NC1CCCC1 (stereo not drawn)	1.84%	-0.108%	0.195%	-4.21%	-0.09%
CCN(CC)CCNC(=O)c1c(C)[nH]c(/C=C2\C(=O)Nc3ccc(Cl)cc32)c1C		-11.1%		-25.6%	-28.5%
COc1cc(C(CO)CO[C@@H]2O[C@H](CO)[C@@H](O)[C@H](O)[C@H]2O)ccc1O (stereo partly drawn)	3.98%	2.11%	9.71%	-10.9%	-6.41%
CCCn1c(=O)c2ccc(C(=O)NC(C)CC)cc2n2c(=O)n(Cc3ccc(Cl)cc3)nc12 (stereo not drawn)	-1.85%	0%	2.12%	-5.39%	1.96%
Cc1noc2c(NCCN3CCOCC3)cc(-c3ccsc3)nc12	-7.96%	-5.97%	-9.92%	-24%	-13.8%
COCC1(CNC(=O)c2cnccn2)C[C@@H](O)[C@@H](O)C1 (stereo partly drawn)	-5.33%	-6.97%	-4%	-5.84%	-5.89%
COc1nc2c(cc1CNC(=O)c1cccnc1C)C(=O)N(C1CCCC1)C2	-5.98%	-6.48%	-4.54%	-8.58%	-3.85%
CCCCN1C(=O)c2cc(C(=O)Nc3ccc(Cl)cc3)nn2CC1(C)C(=O)NC1CCCC1 (stereo not drawn)	3.41%	4.94%	-10.9%	1.41%	4.59%
Clc1ccc(-c2nnn3c2nc(NCc2ccc4c(c2)OCO4)c2ccccc23)cc1	3.71%	0.684%	6.26%	8.18%	-0.602%
CC(C)CCN1C[C@@H]2C[C@H]1C(=O)N(Cc1cccnc1)c1ccccc1O2	-16.6%	-10.2%	-11%	-29.9%	-15.8%
CC(C)n1nc(CNC(=O)Cc2ccc(F)cc2)c2ccccc21	13.3%	3.8%	10%	7%	9.34%
Cn1c(=O)c2nc(/C=C/c3cccc(Cl)c3)n(C)c2n(C)c1=O	-3.72%	-2.14%	9.16%	-20.1%	2.5%
C=C1[C@@H]2CC[C@@]3(C)[C@H](c4ccoc4)OC(=O)C[C@]13O[C@H]1CC(=O)C(C)(C)[C@H](CC(=O)OC)[C@]12C	1.75%	1.18%	5.33%	-10.9%	1.78%
CNCCC(Oc1ccccc1C)c1ccccc1 (stereo not drawn)	9.78%	8.26%	14.3%	-8.04%	-2.97%
